# In all, about 310,000 compounds went through this assay and about 14,000 (4.5%) showed an effect of 50% or more. Effects have a minus sign here. Some of the results follow.
# Target: human ether-à-go-go-related gene (hERG) potassium channel (human, UniProt Q12809)
# Test: primary screen, population patch clamp on CHO cells stably expressing hERG
# 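Further: peak tail current of the secondary pulse compared with the same well before compound.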
# human ether-à-go-go-related gene (hERG) potassium channel, sequence (Q12809 whole entry, looked up): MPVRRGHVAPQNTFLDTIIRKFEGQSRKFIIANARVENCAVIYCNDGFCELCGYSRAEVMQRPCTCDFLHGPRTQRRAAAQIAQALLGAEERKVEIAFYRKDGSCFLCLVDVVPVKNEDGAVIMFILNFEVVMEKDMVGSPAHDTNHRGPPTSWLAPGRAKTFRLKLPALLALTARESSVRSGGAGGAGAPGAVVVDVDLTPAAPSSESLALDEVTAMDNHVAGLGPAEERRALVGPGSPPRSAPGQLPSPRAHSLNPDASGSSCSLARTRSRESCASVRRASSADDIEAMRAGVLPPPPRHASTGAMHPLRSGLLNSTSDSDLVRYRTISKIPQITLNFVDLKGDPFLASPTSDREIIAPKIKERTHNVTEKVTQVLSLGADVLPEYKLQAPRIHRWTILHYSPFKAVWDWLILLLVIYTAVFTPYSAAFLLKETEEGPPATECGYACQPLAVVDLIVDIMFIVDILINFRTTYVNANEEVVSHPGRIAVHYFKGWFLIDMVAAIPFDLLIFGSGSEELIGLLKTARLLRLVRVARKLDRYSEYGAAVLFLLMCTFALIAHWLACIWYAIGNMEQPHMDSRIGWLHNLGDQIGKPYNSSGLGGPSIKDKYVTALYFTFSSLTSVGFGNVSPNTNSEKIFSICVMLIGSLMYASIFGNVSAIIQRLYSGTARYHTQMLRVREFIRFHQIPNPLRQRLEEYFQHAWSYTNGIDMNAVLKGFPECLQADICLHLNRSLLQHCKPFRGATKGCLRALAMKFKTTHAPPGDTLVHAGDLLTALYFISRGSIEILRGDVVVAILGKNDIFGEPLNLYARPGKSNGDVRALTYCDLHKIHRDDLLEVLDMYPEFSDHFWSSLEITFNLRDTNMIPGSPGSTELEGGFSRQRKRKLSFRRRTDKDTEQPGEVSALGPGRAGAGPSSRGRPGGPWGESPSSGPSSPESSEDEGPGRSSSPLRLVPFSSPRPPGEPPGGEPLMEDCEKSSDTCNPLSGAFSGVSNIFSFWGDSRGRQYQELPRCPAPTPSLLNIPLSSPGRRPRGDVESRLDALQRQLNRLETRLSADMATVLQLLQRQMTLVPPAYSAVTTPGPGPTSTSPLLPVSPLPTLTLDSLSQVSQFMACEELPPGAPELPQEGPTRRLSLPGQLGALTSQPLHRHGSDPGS
row,Structure (SMILES),"hERG current change (%, negative = inhibition) at 10uM"
1,CC(=O)/C(=N\Nc1ccccc1Cl)Sc1nnc(-c2ccccc2)n1-c1ccccc1,4.12%
2,C=CCN1C(=O)C2C(C(=O)NC3CCCC3)C3(C)C=CC2(O3)C1C(=O)NC1CCCC1 (stereo not drawn),8.72%
3,O=C(COC(=O)Cc1cccc(C(F)(F)F)c1)Nc1ccc2[nH]c(=O)[nH]c2c1,14.2%
4,CCOC(=O)Cc1csc(N/N=C\c2cccc(Br)c2)n1,-2.48%
5,CC(OC(=O)CN1C(=O)c2ccccc2C1=O)C(=O)N(C)c1ccccc1 (stereo not drawn),15.7%
6,O=C(Cn1c(C(=O)O)cc2ccccc21)c1ccccc1,18.6%
7,Cc1cccc(C(=O)N2CCCC(c3nc(-c4ccc(C)o4)no3)C2)c1 (stereo not drawn),-27.7%
8,O=S(=O)(NNC(=S)Nc1ccc(S(=O)(=O)Nc2ncccn2)cc1)c1ccc(Br)cc1,26.7%
9,CCc1ccc(N(C(=O)CCC(=O)Nc2cc(C)on2)C(C(=O)NC2CCCC2)c2ccco2)cc1 (stereo not drawn),-10.3%
10,C/C=C\C(=O)Nc1cccc(C2=NOC3(C2)C[C@@H](C(N)=O)N(C(=O)COc2ccc(Cl)cc2)C3)c1 (stereo partly drawn),-3.48%
11,COc1cc(C(F)(F)F)c(C(=O)N(C)Cc2cccc(Cl)c2)cn1,-5.3%
12,CN(CC(=O)O)S(=O)(=O)c1ccc2c(c1)NC(=O)CC(=O)N2,6.63%
13,COc1ccc(CC(=O)N2CCN(C)CC2)cc1,-16.3%
14,CC(C)C(NS(=O)(=O)c1ccc2c(c1)oc(=O)n2C)C(=O)N1CCN(Cc2ccccc2)CC1 (stereo not drawn),-7.65%
15,COC(=O)C1(O)CC(CC(C)C)=NN1C(=O)c1ccccc1 (stereo not drawn),4.48%
16,CCN(CC)S(=O)(=O)c1ccc2c(c1)nc(SCC(=O)NCC1CCCO1)n2CC (stereo not drawn),3.12%
17,CCN1CCC(NC(=O)Nc2ccc(F)cc2F)CC1,10.7%
18,O=C(O)c1ccc2ccccc2c1O.OCc1cc(C(O)CNCCCCCCOCCCCc2ccccc2)ccc1O (stereo not drawn),-45.5%
19,CCOc1ccc(-n2cc(C(=O)NCc3ccco3)c3cc(OC)c(OC)cc3c2=O)cc1,5.46%
20,Cc1nn(Cc2ccccc2)c(C)c1/C=N/NC(=O)CNc1cccc(C(F)(F)F)c1,-13.7%
21,COc1ccccc1C(=O)NCC(=O)N1CCN(S(=O)(=O)c2ccccc2C(F)(F)F)CC1,-6.95%

row,Structure (SMILES),"hERG current change (%, negative = inhibition) at 10uM"
1,COC(=O)Nc1ccccc1C(=O)N1CCC(O)(c2ccc(Cl)cc2)CC1,-14.4%
2,O=C(c1ccc(S(=O)(=O)N2CCCCCC2)cc1)N(c1ccccn1)C1CCCCC1,-25.9%
3,CCOC(=O)C1SC2(C(F)(F)C(F)F)CC1(O)c1c(c(OC)c3occc3c1OC)O2 (stereo not drawn),-3.47%
4,CN(Cc1c(F)cccc1Cl)C(=O)CNC(=O)c1ccc2c(c1)OCO2,-0.499%
5,Cc1cccc(C(=O)NNC(=O)c2csc(N3CCOCC3)n2)c1C,-9.89%
6,N#Cc1c(-c2ccccc2Cl)cc(-c2ccccc2)[nH]c1=S,-1.23%
7,COc1cc(/C=N/NC(=O)COc2ccc(C)cc2)ccc1OC(=O)c1cccs1,20.7%
8,COc1ccc(-n2nc(C(=O)NCC(=O)Nc3cccc(Cl)c3)c3ccccc3c2=O)cc1,15.2%
9,CC(Oc1ccccc1Cl)C(=O)N1CCCN(C)CC1 (stereo not drawn),18.2%
10,CC(Oc1ccccc1)C(=O)N=C1SC2CS(=O)(=O)CC2N1c1cccc(F)c1 (stereo not drawn),-4.53%
11,COc1ccc(/C=C2\Sc3ccc(C(=O)N4CCN(Cc5ccccc5)CC4)cc3N(C)C2=O)cc1OC,3.28%
12,O=C(O)CSc1nnc(C2COc3ccccc3O2)n1-c1ccccc1 (stereo not drawn),22%
13,CC(C)[C@H]1C(=O)O[C@@H]2CCN3CC=C(COC(=O)[C@](C)(O)[C@]1(C)O)[C@H]23,4.72%
14,CN1/C(=C\C=Nc2ccccc2)C(C)(C)c2ccccc21,-72.1%
15,N=c1c2c(ncn1Cc1ccco1)Oc1cc(O)ccc1C2c1ccccc1 (stereo not drawn),-74.1%
16,Cc1cccc(NC(=O)CSc2nc(C3CC3)nc3ccccc23)c1,-4.59%
17,Cc1cc2oc(=O)cc(Cn3ccnc3)c2cc1O,16.9%
18,COCCNC(=O)/C(C#N)=C/C=C/c1ccccc1,21.1%
19,Cc1oc(-c2ccc(Cl)cc2)nc1CS(=O)CC(=O)NCc1ccc2c(c1)OCO2 (stereo not drawn),-4.47%
20,Cc1ccc(C2=NN=C(NC(=O)CSc3nc(C)cc(C)n3)SC2)cc1,7.22%
21,CC(=O)/C(=N\Nc1ccc(Cl)cc1)Sc1nnc(-c2ccccc2)n1-c1ccccc1,1.56%

row,Structure (SMILES),"hERG current change (%, negative = inhibition) at 10uM"
1,CN(C)C(=O)Nc1ccc(F)cc1F,1.6%
2,CN(c1ccc(C(=O)Nc2ccccc2C(=O)N2CCOCC2)cc1)S(C)(=O)=O,14.2%
3,O=C(OCc1ccc([N+](=O)[O-])cc1)c1cc(S(=O)(=O)N2CCCCC2)ccc1N1CCOCC1,-75.9%
4,COc1cc(/C=N/N=C2/SCC(=O)N2c2ccc(O)cc2)ccc1O,15.3%
5,O=C(NCc1cccs1)c1cccnc1C(=O)O,0.777%
6,Cc1ccc(NS(=O)(=O)c2ccc(C3CCCCC3)cc2)cc1,-10.3%
7,COc1ccc2c(-c3ccccc3)cc(SC(C)C(N)=O)nc2c1 (stereo not drawn),19.3%
8,CCC1(c2ccccc2)NC(=S)N(c2ccc(C)cc2)N1 (stereo not drawn),22%
9,O=C(Cn1ncc2c1-c1ccccc1OC2)Nc1nc2ccccc2s1,-17.3%
10,O=C(NCCc1ccc(Cl)cc1)C1CCC(=O)N(C2CCCCCC2)C1 (stereo not drawn),-16.5%
11,COc1ccc2c(C)nc(Nc3nc(C)c(C)c(=O)[nH]3)nc2c1,4.79%
12,Cc1nc2ccc(NC(=O)Cc3ccsc3)cc2s1,6.81%
13,Cc1cccc(C2c3[nH]c4ccccc4c3CCN2C(=O)c2cn(C)c3ccccc3c2=O)n1 (stereo not drawn),-25.6%
14,CCOC(=O)CC1COCCN1Cc1cn[nH]c1-c1ccc2c(c1)OCO2 (stereo not drawn),21.1%
15,COc1ccc(CCNC(=O)c2coc3ccccc3c2=O)cc1,19.5%
16,CC1CC(C)CN(C(=O)c2ccc(C#N)cc2)C1 (stereo not drawn),12.2%
17,CCN(CC)CCn1c2c(c(SCC(=O)Nc3cc(C)cc(C)c3)nc1=O)CCC2,-62.1%
18,Cn1c(SCc2ccccc2)nnc1-c1ccc(O)cc1,6%
19,Cc1noc(C)c1C(=O)NCCc1c(C)[nH]c2ccccc12,13.8%
20,CC(OC(=O)CN1C(=O)C2C3C=CC(C4CC34)C2C1=O)C(=O)c1ccccc1 (stereo not drawn),-3.71%
21,CCN(CC)C(=O)c1nn(-c2ccccc2)c2c1C1CCC2(C)C1(C)C (stereo not drawn),-17.3%

row,Structure (SMILES),"hERG current change (%, negative = inhibition) at 10uM"
1,O=C(COc1ccccc1[N+](=O)[O-])Nc1ccc(NC(=O)c2cc3ccccc3o2)cc1,1.86%
2,COc1ccc2nc(C)cc(N/N=C/c3cccc(OC)c3O)c2c1,-13%
3,Cc1csc(=O)n1CCC(=O)OCc1nnc(-c2ccc([N+](=O)[O-])cc2)o1,-67.3%
4,CCOC(=O)N1CCN(CC(O)COC(CC)c2ccccc2)CC1.Cl (stereo not drawn),-19.6%
5,COn1c(SCc2cccc(Cl)c2)nc2ccccc2c1=O,-3.21%
6,Cc1cc(O)c(-c2cc(O)c(C)cc2O)cc1O,-14%
7,FC(F)(F)c1cc(-c2cccs2)nc2nc(N3CCOCC3)sc12,2.27%
8,COc1ccc(CN2C(=O)CSC2c2ccccn2)cc1 (stereo not drawn),7.85%
9,COc1ccc(/C=N/NC(=O)c2nc(Cl)c(Cl)c(N)c2Cl)cc1COc1ccc(F)cc1F,5.74%
10,COc1nc2ccccc2c(=O)n1-c1ccc(Cl)cc1,-7.69%
11,COCCCN1C(=O)C(=O)/C(=C(/O)c2ccc(S(=O)(=O)N3CCOCC3)cc2)C1c1ccc(OC)cc1 (stereo not drawn),16.6%
12,CCCCc1nc2ccccc2n1CC(=O)NN,16.3%
13,COC(=O)c1ccc(CSc2nnc(-c3ccccc3)n2C)o1,-2.29%
14,COc1cc(S(=O)(=O)N(Cc2cccnc2)Cc2cccc(OC)c2OC)ccc1-n1cnnn1,-46.5%
15,COC(=O)C1=C(C(=O)c2ccccc2)C(c2ccccc2)n2nnnc2N1 (stereo not drawn),10.2%
16,CCC1CCc2sc(C(=O)N(C)CC(=O)Nc3ccc(OC)cc3)cc2C1 (stereo not drawn),-18.2%
17,CC(C)(C)NC(=O)CN(C(=O)CN1C(=O)C(=O)c2ccccc21)C(C)(C)C,-1.42%
18,O=C1c2ccccc2C(=O)N1Cc1nc(-c2ccncc2)no1,5.94%
19,C=CCNC(=O)N1CCC(n2nccc2NC(=O)CCCc2ccccc2)CC1,-9.61%
20,COc1ccc(N(C(=O)c2snc(C(N)=O)c2N)C(C(=O)NC2CCCC2)c2cccs2)cc1OC (stereo not drawn),-1.74%
21,CC(=NCCCn1ccnc1)c1c(C)[nH]n(-c2ccc([N+](=O)[O-])cc2)c1=O,-69.3%

# Source: publication PMC4336329 (PLoS ONE, 2015)
